The RNAGym collection of RNA variant scans (doi:10.1093/nar/gkz1192)
The source gives no read counts; variants with many changes may rest on few reads.

B1: CPEB3 Ribozyme (parent)
chain: UAACAGGGGGCCACAGCAGAAGCGUUCACGUCGCAGCCCCUGUCAGAUUCUGGUGAAUCUGCGAAUUCUGCUGUAUAUCUC

Variants of: B1
Assay: self-cleavage, relative activity (ratio to wild type); higher = more cleavage; in vitro, sequencing
In short: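 After error-prone PCR and barcoding, CPEB3 ribozyme mutant libraries were transcribed with T7 RNA polymerase at 37°C for 5 hours, then given 15 min with DNase I before an EDTA stop, and they cleaved during both steps. Reverse transcription with template switching preceded Illumina sequencing. Relative activity divides a variant's cleaved/total read fraction by the unmutated ribozyme's. At least 5 reads were required per variant, and three batches were averaged.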

Variant | self-cleavage
A5G A13G A35G U69C | 0.13
A5G A13U A45G U60A U72C | 0.2
A5G A20G G30A U58C U60A | 0.12
A5G A15G U31C | 0.58
A5C G7A U54C U72C | 0.51
A5C G10A A64U A65G U74C U80A | 0.05
A5G A13G A18G G33C U43C U49A | 0.3
A5C G9U A28U A45U | 0.23
A5G A13U A21U A35G U48C A75G | 0.2
A5G A15G A18U A45G U60A | 0.52
A5G A15G U31A A47G U51A A65G | 0.13
C4U U49C U51C | 0.75
A5C C17A A18G U49G A65G | 0.03
A5G A13G A45G U49C U78A | 0.12
A5G A13U A35G U41G | 0.42
A5G A15U U41A A77G | 0.26
C4U U41C A45G U69A | 0.67
A5C G8A A13U A21G | 0.13
A5G A15U U49C | 0.5
A5G A13U A20U A56U U58C | 0.09
A5C A64U U69C G73A | 0.22
A5G A15U A21G A47G U67C | 0.25
A5G A13G U41A | 0.32
A5G A13G A18U A57G A77G | 0.25

Variant | self-cleavage
A5G A15G C17G A20U U58C | 0.08
A5G A18G A28G U54C G55U | 0.38
A5C U31A G46U G52C A64G | 0.22
A5G A18G U41A U72G | 0.14
A5C G6C U25C U67C | 0.08
A5C A20U A75G | 0.16
A5C U58C U80A C81U | 0.88
A5C A13G G24C A35G A45G | 0.43
C4U U60C U78C | 0.54
A5G A20G U26A A28G G52U U69A | 0.06
A5G A13G U26A U43C U78C | 0.05
A5G A15C U26C U51A | 0.16
A5G A15G G36C | 0.37
A5C A18G A28G | 0.35
A5G A20G G22A G24A U26A U41A A57G | 0.08
A5G A18U U26C U41A U51A | 0.11
A5G A13G A18G | 0.23
A5C G42A G53C | 0.45
A5C A21G U31C U43C U51C A65G U67A | 0.1
A5G A15G U41A U54G | 0.06
A5G A13G A56U U66C | 0.18
A5G A20G G24A A28G U31C U41C U67A | 0.24
A5C A13G A56U U58A U66C | 0.23
A5C G42A U48C | 0.06

Variant | self-cleavage
A5G A15C U60C | 0.05
A5C A15U A18G C44U A64U U78A | 0.09
A5C U78C U80C | 0.55
A5C C37U A65G | 0.31
A5C U25G U58C U74C | 0.36
A5C A20U U26C U60A | 0.34
A5C U41A A57U | 0.23
A5C U31A A57G | 0.51
A5G A15C U26C U51A U78G | 0.34
A5G A18G A47G A57G | 0.44
A5C G9A U72C | 0.7
A5C A18C A45C | 0.1
A5G A13G G24A U43A U48C | 0.05
A5G A15G U41C A77G | 0.46
A5G A18G U51A U54C A57G | 0.32
A5G A15U A20G U69C | 0.1
A5C A21G A28G U43A A64U U72C | 0.35
A5G A18G A35G A64C U80C | 0.33
A5G A15G C38U U41C A47U A64U | 0.06
A5G A15G G24U A65G U78C | 0.22
A5G A15G G22C A57U U69A | 0.21
A5G A18G C23U U25C A64G | 0.22
A5G A15U C34G C62G | 0.07
A5G A18U A28G A64G U69G U80C | 0.06

Variant | self-cleavage
A5G A18U U26A U31C U49C U60C | 0.07
A5G A20G U41A A64U U78C | 0.04
A5G A15U U48C A64G U69A U78C | 0.17
A5G A18G U66A U72A | 0.29
A5C A15U A20U U26A C29G C38A A64G | 0.45
A5G A13G U48C A65G | 0.05
A5G A15U C23U U54C U69C U78C | 0.15
A5G A15U A35U | 0.41
A5C A18U A64U A75G | 0.4
A5G A13G A21G U76A | 0.4
A5G A15G U54C U69A U76C U78C | 0.13
A5C A13U A18G G22A U25C | 0.08
A5C C71U U78C | 0.33
A5G A18U A20G U41C A57G | 0.3
A5G A13U A20G A21G G33U C79A | 0
A5G A20G A28G C38U U43C U49C U54A | 0.03
A5G A13C A20G A21G | 0.68
A5G A15G A20G U26C A57U U58A U72C | 0.04
A5G A15C U31C C50U U69C | 0.34
A5C A35U A75U | 0.7
C4U U31C U60C | 0.61
A5G A15G A35G A47G | 0.63
A5C U43A A64U U72C | 0.51
C4U U31C A56U U80C | 0.68

Variant | self-cleavage
A5C U25C A35C G42U A64U | 0.3
A5G A13G A20G C39G G42A U60C | 0.29
A5G A18U U41A G42A | 0.05
A5C U74C U80C | 1.17
A5C U74C U80A | 1.15
A5G A13U C17A A28G U78C | 0.3
A5C A20C U31C U60A | 0.51
A5C A18G C59U U72A U74C | 0.81
A5C G30A C37G A77U | 0.18
A5G A13G C44G C62G U80A | 0.34
A5G A13G U31A C44A A64G | 0.06
A5C G6C U80C | 0.63
A5C A13U U26C C39U U69A | 0.1
A5C U25C A45U U49A G52C U80A | 0.03
A5G A18U U58G U60A | 0.09
A5G A13G A21G U60C U72C | 0
A5C A13U C37G U67C U78A | 0.12
A5G A20G C39G U60C | 0.33
A5G A13U G24A A57G A65G | 0.09
A5G A13G C32U U41C U51G A57G | 0.11
A5G A18G C50A U51C U69A | 0.32
A5G A13G U26C A47G U74C | 0.04
A5C A21G A64U | 0.18
A5G A13U U41A U58A U66C U74A | 0.26

Variant | self-cleavage
A5G A18G U66C U80G | 0.16
A5G A13G A18G U58C | 0.13
A5G A18G A57G U72A U78A | 0.28
A5C A65G U72C | 0.63
A5G A13G U43C A45U U54C | 0.57
A5G A13G A35U U49C U58C | 0.06
A5G A18U A20G A57G | 0.39
A5C U74A U78C | 1.01
A5C C34G U43C | 0.44
A5G A18G A20G U26C G55U U69C | 0.47
A5C C37G U41C | 0.8
A5C G10A U25C U72C | 0.38
A5G A18G U26C A47G | 0.6
A5G A15G U72A | 0.42
A5C A18G U54A U66C U78C | 0.18
A5C A15U U41C | 0.68
A5G A13G A15C U25A U26A U66C U76C | 0.34
A5G A13U A21C A65G A77G | 0.21
A5C A15U C29U A64U A77G | 0.15
A5C C12G A21G U41A C68A | 0.1
A5G A15G G33A A35G C37A A56U U78C | 0.01
A5G A15U A45U G53A | 0.32
C4U U31C A57G | 0.84
A5C U48C U51C | 0.4

Variant | self-cleavage
A5G A15C U54A | 0.49
A5C C11U A45U A57G C59U | 0.24
A5G A18U A45G U51C | 0.29
A5G A13U U41C U60A | 0.28
A5G A13U A18G U25C A28U U49C | 0.34
A5G A15U A20U U25C A45C G52U U66C | 0.06
A5C G9A A15G | 0.61
A5G A15G U78C | 0.61
A5G A13C C44A U48C U69A | 0.08
A5C G6A A64G U66C U69A U72C A77U | 0.12
A5G A13G A15C U67C U78C | 0.08
A5G A15G U49C U51A | 0.25
A5C A28G A35G U58C | 0.82
A5C G8A A21G | 0.64
A5G A20G A28G U41C U43A | 0.5
A5G A13U A20G A47U | 0.06
A5G A18G G24C U51A | 0.28
A5C A15U U43A U66A U69C | 0.21
A5G A18C U26C U60C | 0
A5G A13U A28G A35G | 0.82
A5G A18U A28U U43C U76C | 0.1
A5G A13U U26C A45G A57G U69C A75U | 0.18
A5C G22A G30A A35U | 0.1
